± gives the standard deviation. The entries are a selection whose mix differs from that of the whole data set.
What follows are sequences tested on MIWI (PIWIL1) piRISC loaded with L1MC piRNA (30 nt) (assay: pre-steady-state target cleavage rate (min^-1); MIWI and MILI are mouse PIWI proteins and EfPiwi is from a freshwater sponge; tags in brackets are library labels; higher = faster piRNA-guided slicing of the target). Details: guide: L1MC piRNA 5'p-UAACUAAAUACUAUGCAAGCUGUAGGUCCU; auxiliary factor: 500 nM mouse GTSF1.
In short: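 The pre-steady-state cleavage rate came from a burst-and-steady-state fit to pooled data from three Cleave-'n-Seq trials, in which uncleaved targets were sequenced and normalised to depth and to weakly complementary targets. Each reaction held 0.1 nM transcribed, DNA-blocked target RNA library and 1 nM active affinity-purified piRISC carrying one synthetic guide, with or without 500 nM GTSF1 partner protein, in HEPES–potassium acetate buffer at 33 °C for 0–8 or 0–960 min. k3 was capped at 0.0001 min^-1.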

Point of comparison: UCCUCCUACAGGUUGCAUAGUAAUUAGUUA, “pre-steady-state target cleavage rate” value 0.603 ± 0.036. Against it:
- UCCUGCUACACCUUGCAUAGUUUUUAGUUA — lower, 0.172 ± 0.028
- UCGACCUACAGCUUGCAUACUAUUUAGUAA — lower, 0.224 ± 0.023
- UCCUGGAUCAGCUUGCAAAGUAUUUAGUUA — higher, 1.16 ± 0.065
- AGGACCUAGUCCUUGCAUAGUAUUUAGUUA — higher, 1.05 ± 0.052
- UCGACGUACAGCUUGCAAAGUAUUUAGUUA — higher, 1.26 ± 0.043
- UCCUGCUUCUGCUUGCAUAGUAUUUAGUUA — within error, 0.606 ± 0.03
- UCCUGGAUCAGCUAGCAUAGUAUAUAGUUA — lower, 0.341 ± 0.036
- AGGACCAACAGCUUGCAUAGUAAUUAGUUA — higher, 0.892 ± 0.05
- UCGUGGUACAGCUUGCAUAGUAUUUACAAA — lower, 0.219 ± 0.027
- UCCACCUACAGCUUGCAUUGUAUUUACUUA — lower, 0.342 ± 0.031
- AGGACCUACACGUUGCAUAGUAUUUAGUAA — higher, 0.742 ± 0.052
- UCCUGGUACAGCUUGCAUAGUAUAUACUUA — lower, 0.0741 ± 0.022
- UCCUGGUACAGCAUGCAAAGUAUUUAGUUA — higher, 0.746 ± 0.034
- UCCUGGUACUGGUUGCAUAGUAUUUAGUUA — lower, 0.241 ± 0.044
- UCCACCAUCAGCUUGCAUAGUAUUUAGUUA — higher, 1.23 ± 0.044

Same assay, conditions: guide: L1MC piRNA 5'p-UAACUAAAUACUAUGCAAGCUGUAGGUCCU; auxiliary factor: none (no GTSF1)

Point of comparison: UCCUGCUACACCUUGCAUAGUAUAUAGUUA, “pre-steady-state target cleavage rate” value 0.0293 ± 0.0057. Against it:
- UCCUGCUACAGCUUGCAUAGUAAUUUGUUA — lower, 0.0138 ± 0.0047
- UCCUGGAACAGCUUGCAUUGUAUUUAGAAA — lower, 0.00569 ± 0.0034
- UCCUGGAUGAGCUUGCUUAGUAUUUAGUAA — lower, 0.0129 ± 0.0034
- UCCUGGAACAGCAUGGAUAGUAUUUAGUUA — within error, 0.0192 ± 0.0045
- UCCUGGAUCUGCUAGCAUAGUAUUUAGUUA — lower, 0.00579 ± 0.0027
- UCGUCCUACAGCUUGCAUAGUAUUUAGUUA — higher, 0.0638 ± 0.0093
- UCCUGGAUCAGCUUGCAUAGUAUUUACAAA — lower, 0.00512 ± 0.003
- UGGUGGUACAGCUUGCAUAGUAUUUAGUAA — within error, 0.0302 ± 0.0065
- AGGACCUACAGCUUGCAUAGUAUAAAGUAA — lower, 0.00659 ± 0.0031
- UCGACCUACUGCUUGGAUAGUAUUUAGUUA — higher, 0.0575 ± 0.0089
- UCCUGCUACAGCUUGCAUAGUAUUUAGUA — lower, 0.00464 ± 0.0019
- UCCUGCUACAGCUUCAUAGUAUUUAGUUA — lower, 0.00968 ± 0.0021
- UGGACCUACAGCUUGCAUAGUAAUUAGUUA — within error, 0.0268 ± 0.0066
- UCCUGGAUCAGCUUGCAUAGUAUUUAGUCA — within error, 0.0305 ± 0.0092
- UCCUGGAUCAGCUUGCAUAGUAUUAACUUA — lower, 0.00984 ± 0.0034
- UCCUGGAUGAGCUUGCAUAGUAUUCAGUUA — within error, 0.0236 ± 0.0075
- UCCUGGAUCAGCUUGCAUAGUAUUUUGUUA — within error, 0.0311 ± 0.0076
- UCCUCCUACACCUUGGAUAGUAUUUAGUUA — within error, 0.0248 ± 0.004
- UCCUGCUACAGCUUGCAUAGUAUAAAGUUA — lower, 0.0112 ± 0.0034
- UGGACCUACAGUCUUGCAUAGUAUUUAGUUA — higher, 0.0649 ± 0.013
- UGGACCUACAGCUUGCAUAGUAUUUAAGUUA — higher, 0.0479 ± 0.0099
- UGGGACCUACAGCUUGCAUAGUAUUUAGUUA — higher, 0.134 ± 0.033
- UCGACCUACAGCUUGCAUAGUAUUUUGUAA — higher, 0.0461 ± 0.01
- UCCUGCUACACCUUGCAUAGUUUUUAGUUA — within error, 0.0199 ± 0.0073
- UCGACCUACAGCUUGCAUACUAUUUAGUAA — lower, 0.0184 ± 0.0039
- UCCUGGAUCAGCUUGCAAAGUAUUUAGUUA — within error, 0.0381 ± 0.012
- AGGACCUAGUCCUUGCAUAGUAUUUAGUUA — higher, 0.052 ± 0.01
- UCGACGUACAGCUUGCAAAGUAUUUAGUUA — within error, 0.0364 ± 0.0077
- UCCUGCUUCUGCUUGCAUAGUAUUUAGUUA — higher, 0.0455 ± 0.0097
- UCCUGGAUCAGCUAGCAUAGUAUAUAGUUA — lower, 0.00497 ± 0.0029
- AGGACCAACAGCUUGCAUAGUAAUUAGUUA — higher, 0.0463 ± 0.011
- UCGUGGUACAGCUUGCAUAGUAUUUACAAA — lower, 0.00285 ± 0.002
- UCCACCUACAGCUUGCAUUGUAUUUACUUA — lower, 0.017 ± 0.0047
- AGGACCUACACGUUGCAUAGUAUUUAGUAA — within error, 0.0223 ± 0.0036
- UCCUGGUACAGCUUGCAUAGUAUAUACUUA — lower, 0.0042 ± 0.0025
- UCCUGGUACAGCAUGCAAAGUAUUUAGUUA — within error, 0.0193 ± 0.0046
- UCCUGGUACUGGUUGCAUAGUAUUUAGUUA — lower, 0.00872 ± 0.0025
- UCCUCCUACAGGUUGCAUAGUAAUUAGUUA — lower, 0.0104 ± 0.0024
- UCCACCAUCAGCUUGCAUAGUAUUUAGUUA — higher, 0.0574 ± 0.0082
